This note sets out measurements from US11457629B2, “Heteroarylphenylaminoquinolines and analogues” (Bayer Aktiengesellschaft, priority 2017, dated 2022).

Each structure is given as a SMILES string. Marks after values point to notes of the source that are not given here.

How the values of this data set were obtained: In the following, measurement of Log P values was performed according to EEC directive 79/831 Annex V.A8 by HPLC (High Performance Liquid Chromatography) on reversed phase columns with the following methods: • ^[a]
If more than one Log P value is available within the same method, all the values are given and separated by “+”.
Calibration was done with straight-chain alkan2-ones (with 3 to 16 carbon atoms) with known Log P values (measurement of Log P values using retention times with linear interpolation between successive alkanones). Lambda-max-values were determined using UV-spectra from 200 nm to 400 nm and the peak values of the chromatographic signals.
As to `CC1=NOC(c2c(F)cccc2Nc2cnc3ccccc3c2)C1` (racemic) [Example I-034], the logP was 2.84 ^[b]. As to `CC1=NOC(c2c(F)cccc2Nc2cc3ccccc3nc2C)C1` (racemic) [Example I-035], the logP was 3.09 ^[b]. With `CC1=NOC(c2c(F)cccc2Nc2cc3ccc(F)c(F)c3nc2C)C1` (racemic) [Example I-036], the logP was 3.42 ^[b]. Then `CC1=NOC(C)(c2c(F)cccc2Nc2cc3ccc(F)c(F)c3nc2C)C1` (racemic) [Example I-042], with 4.23 ^[a]; and `Cc1nc2c(F)cccc2cc1Nc1ccccc1C1=NOCC1C` (racemic) [Example I-057], with 3.73 ^[a]; and `Cc1nc2c(F)c(F)ccc2cc1Nc1ccccc1C1=NOCC1C` (racemic) [Example I-058], with 4.04 ^[a]. For the molecule `CC1CON=C1c1ccccc1Nc1cnc2ccccc2c1` (racemic) [Example I-059], the logP was 2.88 ^[a]. For `c1ccc(-c2ccnn2C2CCCCO2)c(Cc2cnc3ccccc3c2)c1` (racemic) [Example I-116] the value was 2.37 ^[a]; for `Cn1ccc(-c2ccccc2Nc2cnc3ccccc3c2)n1` [Example I-001], 2.70 ^[a]; for `Cc1nc2ccccc2cc1Nc1ccccc1-c1ccn(C)n1` [Example I-002], 2.01 ^[a]. Then `CC(C)n1ccc(-c2ccccc2Nc2cnc3ccccc3c2)n1` [Example I-003], with 3.70 ^[a]; and `Cc1nc2ccccc2cc1Nc1ccccc1-c1ccn(C(C)C)n1` [Example I-004], with 2.65 ^[a]. For `CC(C)(C)n1ccc(-c2ccccc2Nc2cnc3ccccc3c2)n1` [Example I-005], the logP was 4.27 ^[a]. For `Cc1nc2ccccc2cc1Nc1ccccc1-c1ccn(C(C)(C)C)n1` [Example I-006], the logP was 3.01 ^[a]. Then `Cn1nccc1-c1ccccc1Nc1cnc2ccccc2c1` [Example I-007], with 1.90 ^[a]. Then `Cc1nc2ccccc2cc1Nc1ccccc1-c1ccnn1C` [Example I-008], with 1.37 ^[a]; and `CC(C)(C)n1nccc1-c1ccccc1Nc1cnc2ccccc2c1` [Example I-009], with 3.19 ^[a]; and `Cc1nc2ccccc2cc1Nc1ccccc1-c1ccnn1C(C)(C)C` [Example I-010], with 2.58 ^[a]. For `CC1=NOC(c2ccccc2Nc2cnc3ccccc3c2)C1` (stereo not shown) [Example I-011] the value was 1.88 ^[a]; for `CC1=NOC(c2ccccc2Nc2cc3ccccc3nc2C)C1` (stereo not shown) [Example I-012], 2.75 ^[b]. In the case of `CC1=NOC(c2ccccc2Nc2cc3ccc(F)c(F)c3nc2C)C1` (stereo not shown) [Example I-013], the logP was 3.15 ^[b]. Turning to `CC1=NOC(c2ccccc2Nc2cnc3c(F)cccc3c2)C1` (stereo not shown) [Example I-014], the logP was 2.64 ^[b]. Then `CCC1=NOC(c2ccccc2Nc2cnc3ccccc3c2)C1` (stereo not shown) [Example I-015], with 2.90 ^[b]; and `CCC1=NOC(c2ccccc2Nc2cc3ccccc3nc2C)C1` (stereo not shown) [Example I-016], with 3.11 ^[b]. For `CCC1=NOC(c2ccccc2Nc2cc3ccc(F)c(F)c3nc2C)C1` (stereo not shown) [Example I-017] the value was 3.50 ^[b].

For `CCC1=NOC(c2ccccc2Nc2cnc3c(F)cccc3c2)C1` (stereo not shown) [Example I-018], the logP was 2.98 ^[b]. For `CC1=NOC(C)(c2ccccc2Nc2cnc3ccccc3c2)C1` (stereo not shown) [Example I-019] the value was 2.96 ^[b]; for `CC1=NOC(C)(c2ccccc2Nc2cnc3c(F)cccc3c2)C1` (stereo not shown) [Example I-020], 3.02 ^[b]; for `CC1=NOC(C)(c2ccccc2Nc2cc3ccccc3nc2C)C1` (stereo not shown) [Example I-021], 3.12 ^[b]. Then `CC1=NOC(C)(c2ccccc2Nc2cc3ccc(F)c(F)c3nc2C)C1` (stereo not shown) [Example I-022], with 3.65 ^[b]; and `CCC1=NOC(C)(c2ccccc2Nc2cnc3ccccc3c2)C1` (stereo not shown) [Example I-023], with 3.33 ^[b]. For `CCC1=NOC(C)(c2ccccc2Nc2cc3ccc(F)c(F)c3nc2C)C1` (stereo not shown) [Example I-024] the value was 4.03 ^[b]. Regarding `Cn1ccc(-c2c(F)cccc2Nc2cnc3ccccc3c2)n1` [Example I-025], the logP was 3.01 ^[a]. With `Cc1nc2ccccc2cc1Nc1cccc(F)c1-c1ccn(C)n1` [Example I-026], the logP is 2.43 ^[a]. Then `Cc1nc2ccccc2cc1Nc1cccc(F)c1-c1ccn(C(C)C)n1` [Example I-028], with 3.09 ^[a]; and `Cn1nccc1-c1c(F)cccc1Nc1cnc2ccccc2c1` [Example I-029], with 2.26 ^[a]; and `Cc1nc2ccccc2cc1Nc1cccc(F)c1-c1ccnn1C` [Example I-030], with 1.79 ^[a]. `CC(C)n1nccc1-c1c(F)cccc1Nc1cnc2ccccc2c1` [Example I-031]: the logP was 2.92 ^[a]. With `CC(C)(C)n1ccc(-c2c(F)cccc2Nc2cnc3ccccc3c2)n1` [Example I-032], the logP is 4.57 ^[a]. As for `Cc1nc2ccccc2cc1Nc1cccc(F)c1-c1ccn(C(C)(C)C)n1` [Example I-033], the logP was 3.39 ^[a]. With `CC1(C)CC(c2ccccc2Nc2cnc3ccccc3c2)=NO1` [Example I-037], the logP was 3.42 ^[a]. For `Cc1nc2c(F)cccc2cc1Nc1ccccc1C1=NOC(C)(C)C1` [Example I-038] the value was 4.16 ^[a]. For `CC1(C)CC(c2ccccc2Nc2cnc3c(F)cccc3c2)=NO1` [Example I-039], the logP was 3.92 ^[a]. Then `Cc1nc2ccccc2cc1Nc1ccccc1C1=NOC(C)(C)C1` [Example I-040], with 2.50 ^[a]; and `Cc1nc2c(F)c(F)ccc2cc1Nc1ccccc1C1=NOC(C)(C)C1` [Example I-041], with 4.51 ^[a]. Then `Cc1nc2c(F)c(F)ccc2cc1Nc1cccc(F)c1-c1ccn(C(C)C)n1` [Example I-044], with 5.14 ^[a]; and `CC(C)c1ncc(-c2ccccc2Nc2cnc3ccccc3c2)s1` [Example I-045], with 4.31 ^[a]; and `Cc1nc2c(F)c(F)ccc2cc1N(C)c1cccc(F)c1-c1ccn(C(C)C)n1` [Example I-047], with 3.85 ^[a]. On to `Cc1nc2c(F)c(F)ccc2cc1Nc1ccccc1-c1ccn(C)n1` [Example I-048], for which the logP is 4.24 ^[a]. For `Cc1nc2c(F)c(F)ccc2cc1Nc1ccccc1-c1ccn(C(C)(C)C)n1` [Example I-049] the value was 5.39 ^[a]. For `Cc1nc2c(F)c(F)ccc2cc1Nc1cccc(F)c1-c1ccnn1C(C)C` [Example I-051] the value was 3.94 ^[a]; for `Cc1nc2c(F)c(F)ccc2cc1Nc1cccc(F)c1-c1ccn(C)n1` [Example I-052], 4.44 ^[a]; for `Cc1nc2c(F)c(F)ccc2cc1Nc1ccccc1-c1ccnn1C(C)(C)C` [Example I-053], 4.39 ^[a]. Then `Cc1nc(-c2ccccc2Nc2cnc3ccccc3c2)sc1C` [Example I-054], with 4.77 ^[a]. As to `CC(C)c1csc(-c2ccccc2Nc2cnc3ccccc3c2)n1` [Example I-055], the logP is 5.93 ^[a]. Then `CC1(C)CC(c2c(F)cccc2Nc2cnc3ccccc3c2)=NO1` [Example I-056], with 3.75 ^[a]. For `Cc1nc2c(F)c(F)ccc2cc1Nc1cccc(F)c1C1=NOC(C)(C)C1` [Example I-060] the value was 4.80 ^[a]; for `Cc1nc2c(F)c(F)ccc2c(C)c1Nc1cccc(F)c1-c1ccnn1C` [Example I-061], 3.31 ^[a]; for `Cn1nccc1-c1ccccc1Cc1cnc2ccccc2c1` [Example I-065], 1.77 ^[a]. Then `Cc1nn(C)cc1-c1ccccc1Cc1cnc2ccccc2c1` [Example I-068], with 1.82 ^[a].

Take `CC(C)c1ccnn1-c1ccccc1Nc1cnc2ccccc2c1` [Example I-070]: the logP is 2.92 ^[a].

For the molecule `CC(C)n1nccc1-c1ccccc1Cc1cnc2ccccc2c1` [Example I-071], the logP was 2.41 ^[a]. Then `CCn1nccc1-c1ccccc1Cc1cnc2ccccc2c1` [Example I-072], with 2.07 ^[a]; and `Cn1ccnc1-c1ccccc1Cc1cnc2ccccc2c1` [Example I-073], with 0.47 ^[a]. As for `CCn1ncnc1-c1ccccc1Cc1cnc2ccccc2c1` [Example I-074], the logP is 1.51 ^[a]. For `CC(C)(C)[Si](C)(C)OCc1ccnn1-c1c(F)cccc1Nc1cnc2ccccc2c1` [Example I-075] the value was 4.93 ^[a]; for `CC(C)c1ccnn1-c1c(F)cccc1Nc1cnc2ccccc2c1` [Example I-076], 3.15 ^[a]; for `CC(C)(O)c1ccnn1-c1c(F)cccc1Nc1cnc2ccccc2c1` [Example I-077], 1.96 ^[a]. Then `COC(=O)c1ccnn1-c1c(F)cccc1Nc1cnc2ccccc2c1` [Example I-078], with 2.33 ^[a]; and `C=C(C)c1ccnn1-c1c(F)cccc1Nc1cnc2ccccc2c1` [Example I-079], with 2.95 ^[a]; and `Cn1nccc1-c1c(F)cccc1Nc1cnc2c(F)cccc2c1` [Example I-081], with 2.70 ^[a].

For `Cn1nccc1-c1c(F)cccc1Nc1cnc2c(F)c(F)ccc2c1` [Example I-082], the logP was 2.92 ^[a]. For `Cn1nccc1-c1c(F)cccc1Nc1cnc2ccccc2c1Cl` [Example I-085] the value was 3.11 ^[a]; for `Cc1c(Nc2cccc(F)c2-c2ccnn2C)cnc2ccccc12` [Example I-086], 2.04 ^[a]. Then `CCn1nccc1-c1c(F)cccc1Nc1cc2ccc(F)c(F)c2nc1C` [Example I-087], with 3.37 ^[a]. For `CCn1nccc1-c1c(F)cccc1Nc1cnc2c(F)c(F)ccc2c1` [Example I-088] the value was 3.15 ^[a].
